Source: the supplement of paper PMC7826260
The other results are listed elsewhere or left out. Viral Rep nickase domains cut single-stranded DNA in vitro (1 h at 37 °C, 3 µM enzyme); the outer parts of the 90-letter strands are left off. A value is the log2 ratio of uncut reads to the pool without enzyme; uncut sequences lie near 0, cut ones below; no hit call is given. Shares of all reads are compared; where an enzyme cuts many sequences, the uncut ones exceed 0.

What follows are sequences tested on T1, Rep nickase domain of chickpea chlorotic dwarf virus (assay: uncleaved DNA left, log2 of reads against the no-enzyme library (log2 ratio); higher = less cleavage (more negative = more Rep cleavage of the k-mer); sequences stand for … in CTCGTCCG…ACCGGAGA).
T1 sequence (protein, residues 1-124, tag omitted): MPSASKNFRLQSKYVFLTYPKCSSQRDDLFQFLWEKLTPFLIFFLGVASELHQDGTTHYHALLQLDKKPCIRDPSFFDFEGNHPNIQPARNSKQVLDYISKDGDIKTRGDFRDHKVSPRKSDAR
Procedure: (§1)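 A pool of 90-nt single-stranded DNAs with seven random bases just before the constant AC of the nick site (name = the seven bases) was cut by 3 µM recombinant His6-SUMO-tagged Rep nickase domain (300 nM DNA, 50 mM HEPES pH 8.0, 50 mM NaCl, 1 mM MnCl2, 1 h, 37 °C, three replicates). Uncut DNA was amplified and sequenced.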
TAGATTA was tested, and the “uncleaved DNA left (log2)” value was -2.09.
GGTAGGA was tested, and the “uncleaved DNA left (log2)” value was 1.06.
TACGACT was tested, and the “uncleaved DNA left (log2)” value was -1.79.
For CTACTCG, the “uncleaved DNA left (log2)” value was -1.29.
AAGGAGG was tested, and the “uncleaved DNA left (log2)” value was 0.558.
AGAGGCT was tested, and the “uncleaved DNA left (log2)” value was 0.626.
In the case of TTTGCGA, the “uncleaved DNA left (log2)” value is reported as 0.849.
In the case of ATGGCGC, the “uncleaved DNA left (log2)” value is reported as 0.0805.
With ATGCGGG the “uncleaved DNA left (log2)” value was -0.158.
With CGGAGGT the “uncleaved DNA left (log2)” value was 0.876.
GCGCCCT was tested, and the “uncleaved DNA left (log2)” value was -0.596.
For TCTGGTC, the “uncleaved DNA left (log2)” value was 0.274.
ACGCCGC was tested, and the “uncleaved DNA left (log2)” value was -0.655.
For TAGTGTG, the “uncleaved DNA left (log2)” value was -0.206.
With GGGCCCT the “uncleaved DNA left (log2)” value was 1.75.
With TGTAGCA the “uncleaved DNA left (log2)” value was -0.538.
In the case of GTTAGGA, the “uncleaved DNA left (log2)” value is reported as 0.949.
For TTACCCG, the “uncleaved DNA left (log2)” value was -1.99.
With GTAGTCA the “uncleaved DNA left (log2)” value was 0.713.
In the case of GCCATCC, the “uncleaved DNA left (log2)” value is reported as 0.378.
TTCGGAT was tested, and the “uncleaved DNA left (log2)” value was 1.29.
In the case of CGGCCGG, the “uncleaved DNA left (log2)” value is reported as 0.744.
GTGGGTG was tested, and the “uncleaved DNA left (log2)” value was 0.295.
With GCTGGAC the “uncleaved DNA left (log2)” value was 1.87.
TTGAAAT was tested, and the “uncleaved DNA left (log2)” value was 0.0536.
With AGTTCAC the “uncleaved DNA left (log2)” value was -0.146.
For TGGCGAT, the “uncleaved DNA left (log2)” value was 0.575.
For TGAACTG, the “uncleaved DNA left (log2)” value was 0.639.
For TCACTGG, the “uncleaved DNA left (log2)” value was 0.552.
For AGTTGGG, the “uncleaved DNA left (log2)” value was -0.545.
In the case of ATCCAGA, the “uncleaved DNA left (log2)” value is reported as -0.141.
With CACACGC the “uncleaved DNA left (log2)” value was -0.478.
For CAGCTTA, the “uncleaved DNA left (log2)” value was -1.98.
With ACTGGCT the “uncleaved DNA left (log2)” value was -0.0336.
In the case of ACCGGCC, the “uncleaved DNA left (log2)” value is reported as 0.137.
With GAGCGCG the “uncleaved DNA left (log2)” value was -0.328.
For GTCTGGA, the “uncleaved DNA left (log2)” value was 0.867.
CGTCAAA was tested, and the “uncleaved DNA left (log2)” value was 0.248.
ATCATGC was tested, and the “uncleaved DNA left (log2)” value was -0.175.
In the case of GGCATCG, the “uncleaved DNA left (log2)” value is reported as -0.286.

These sequences were tested on T2, Rep nickase domain of faba bean necrotic yellows virus in the same assay as above.
T2 sequence (protein, residues 1-98, tag omitted): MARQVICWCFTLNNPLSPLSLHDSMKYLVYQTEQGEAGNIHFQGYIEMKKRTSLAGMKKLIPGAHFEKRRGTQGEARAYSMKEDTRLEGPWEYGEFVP
Procedure: as §1
In the case of TAGATTA, the “uncleaved DNA left (log2)” value is reported as 0.00384.
For GGTAGGA, the “uncleaved DNA left (log2)” value was 0.245.
TACGACT was tested, and the “uncleaved DNA left (log2)” value was -0.152.
For CTACTCG, the “uncleaved DNA left (log2)” value was -0.0199.
AAGGAGG was tested, and the “uncleaved DNA left (log2)” value was 0.195.
AGAGGCT was tested, and the “uncleaved DNA left (log2)” value was 0.0938.
TTTGCGA was tested, and the “uncleaved DNA left (log2)” value was 0.0874.
ATGGCGC was tested, and the “uncleaved DNA left (log2)” value was 0.0323.
In the case of ATGCGGG, the “uncleaved DNA left (log2)” value is reported as 0.124.
In the case of CGGAGGT, the “uncleaved DNA left (log2)” value is reported as 0.021.
With GCGCCCT the “uncleaved DNA left (log2)” value was -0.0329.
With TCTGGTC the “uncleaved DNA left (log2)” value was 0.0227.
For ACGCCGC, the “uncleaved DNA left (log2)” value was -0.0882.
With TAGTGTG the “uncleaved DNA left (log2)” value was 0.123.
With GGGCCCT the “uncleaved DNA left (log2)” value was -0.0203.
In the case of TGTAGCA, the “uncleaved DNA left (log2)” value is reported as -0.064.
In the case of GTTAGGA, the “uncleaved DNA left (log2)” value is reported as 0.197.
TTACCCG was tested, and the “uncleaved DNA left (log2)” value was 0.00315.
For GTAGTCA, the “uncleaved DNA left (log2)” value was -0.0715.
In the case of GCCATCC, the “uncleaved DNA left (log2)” value is reported as -0.027.
With TTCGGAT the “uncleaved DNA left (log2)” value was -0.0933.
CGGCCGG was tested, and the “uncleaved DNA left (log2)” value was 0.0527.
In the case of GTGGGTG, the “uncleaved DNA left (log2)” value is reported as 0.0812.
With GCTGGAC the “uncleaved DNA left (log2)” value was -0.0148.
TTGAAAT was tested, and the “uncleaved DNA left (log2)” value was 0.0391.
With AGTTCAC the “uncleaved DNA left (log2)” value was -0.128.
In the case of TGGCGAT, the “uncleaved DNA left (log2)” value is reported as 0.0918.
For TGAACTG, the “uncleaved DNA left (log2)” value was 0.0135.
For TCACTGG, the “uncleaved DNA left (log2)” value was -0.145.
For AGTTGGG, the “uncleaved DNA left (log2)” value was 0.0486.
For ATCCAGA, the “uncleaved DNA left (log2)” value was -0.0537.
For CACACGC, the “uncleaved DNA left (log2)” value was -0.00826.
In the case of CAGCTTA, the “uncleaved DNA left (log2)” value is reported as 0.164.
With ACTGGCT the “uncleaved DNA left (log2)” value was 0.1.
For ACCGGCC, the “uncleaved DNA left (log2)” value was -0.0779.
GAGCGCG was tested, and the “uncleaved DNA left (log2)” value was -0.0987.
With GTCTGGA the “uncleaved DNA left (log2)” value was 0.0241.
CGTCAAA was tested, and the “uncleaved DNA left (log2)” value was 0.105.
In the case of ATCATGC, the “uncleaved DNA left (log2)” value is reported as 0.0101.
For GGCATCG, the “uncleaved DNA left (log2)” value was -0.0943.

Each sequence was assayed on T3, Rep nickase domain of maize striate mosaic virus in the same assay as above.
T3 sequence (protein, residues 1-117, tag omitted): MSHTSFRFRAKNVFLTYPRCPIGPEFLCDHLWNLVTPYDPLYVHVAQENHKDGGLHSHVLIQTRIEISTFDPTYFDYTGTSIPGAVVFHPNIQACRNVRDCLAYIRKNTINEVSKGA
Procedure: as §1
TAGATTA was tested, and the “uncleaved DNA left (log2)” value was -0.2.
With GGTAGGA the “uncleaved DNA left (log2)” value was 1.28.
For TACGACT, the “uncleaved DNA left (log2)” value was 1.22.
CTACTCG was tested, and the “uncleaved DNA left (log2)” value was -1.1.
In the case of AAGGAGG, the “uncleaved DNA left (log2)” value is reported as -0.188.
In the case of AGAGGCT, the “uncleaved DNA left (log2)” value is reported as 1.22.
For TTTGCGA, the “uncleaved DNA left (log2)” value was -0.0983.
In the case of ATGGCGC, the “uncleaved DNA left (log2)” value is reported as -0.774.
For ATGCGGG, the “uncleaved DNA left (log2)” value was -0.889.
CGGAGGT was tested, and the “uncleaved DNA left (log2)” value was 1.05.
GCGCCCT was tested, and the “uncleaved DNA left (log2)” value was 0.293.
TCTGGTC was tested, and the “uncleaved DNA left (log2)” value was 0.153.
ACGCCGC was tested, and the “uncleaved DNA left (log2)” value was -1.06.
With TAGTGTG the “uncleaved DNA left (log2)” value was -0.94.
GGGCCCT was tested, and the “uncleaved DNA left (log2)” value was 2.16.
With TGTAGCA the “uncleaved DNA left (log2)” value was -0.601.
With GTTAGGA the “uncleaved DNA left (log2)” value was 1.02.
TTACCCG was tested, and the “uncleaved DNA left (log2)” value was -1.05.
For GTAGTCA, the “uncleaved DNA left (log2)” value was 1.57.
In the case of GCCATCC, the “uncleaved DNA left (log2)” value is reported as -0.0566.
For TTCGGAT, the “uncleaved DNA left (log2)” value was 1.65.
With CGGCCGG the “uncleaved DNA left (log2)” value was 0.606.
In the case of GTGGGTG, the “uncleaved DNA left (log2)” value is reported as 0.199.
With GCTGGAC the “uncleaved DNA left (log2)” value was 2.1.
In the case of TTGAAAT, the “uncleaved DNA left (log2)” value is reported as -0.148.
With AGTTCAC the “uncleaved DNA left (log2)” value was -0.371.
For TGGCGAT, the “uncleaved DNA left (log2)” value was 0.495.
For TGAACTG, the “uncleaved DNA left (log2)” value was 1.53.
For TCACTGG, the “uncleaved DNA left (log2)” value was 0.249.
In the case of AGTTGGG, the “uncleaved DNA left (log2)” value is reported as -0.927.
In the case of ATCCAGA, the “uncleaved DNA left (log2)” value is reported as -0.905.
In the case of CACACGC, the “uncleaved DNA left (log2)” value is reported as -1.01.
For CAGCTTA, the “uncleaved DNA left (log2)” value was -0.113.
ACTGGCT was tested, and the “uncleaved DNA left (log2)” value was -0.197.
In the case of ACCGGCC, the “uncleaved DNA left (log2)” value is reported as -0.482.
In the case of GAGCGCG, the “uncleaved DNA left (log2)” value is reported as -0.561.
In the case of GTCTGGA, the “uncleaved DNA left (log2)” value is reported as 1.51.
CGTCAAA was tested, and the “uncleaved DNA left (log2)” value was -0.0923.
ATCATGC was tested, and the “uncleaved DNA left (log2)” value was -0.936.
For GGCATCG, the “uncleaved DNA left (log2)” value was -0.651.
